# Data from the supplement of paper PMC11417369.
# ± gives the standard deviation of the averaged measurements. The list shows a part of the results.
# System: PfAP2-LT AP2 domain (GST-tagged)
# Assay: gcPBM binding intensity (ln(normalized median fluorescence intensity)); higher = stronger DNA binding
# How it was run: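 Binding intensity is the highest Masliner-normalised natural-log median intensity over replicate spots in either probe orientation. To obtain it, GST-tagged P. falciparum DNA-binding domains made in E. coli were incubated for 1 h on an Agilent 4 × 180k array of primer-extended double-stranded 36-bp intergenic genomic probes plus negative controls. Detection used Alexa488 anti-GST antibody with scanning at 488 nm.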
row,Sequence,gcPBM binding intensity (ln)
1,TATGTTATTATTTGTACACACACATATATATCCTTG [CACACA_site5910],9.62 ± 0.49
2,TTTATTTATATAATTACACACATATATACGCAAATG [CACACA_site2794],8.97 ± 0.38
3,TCATTAATTAAATCTTGTACATATTCATATATATAT [XGTACX_site2241],8.82 ± 0.4
4,TTTTATTCATTAATTTGTACTTATCCTTTTGCTTAA [XGTACX_site1243],8.78 ± 0.51
5,TAAGCCAAGGGATAAATAAAATAACAAAATGAAATC [GTGCAC_negctrl_site601],8.81 ± 0.59
6,AAAGTATAGATGTATACACACACCAAACGTTAAAAA [CACACA_site3081],9.36 ± 0.38
7,TAGTATCAATCTTATACATGCATAAAATAATTATAA [TGCATGCA_site1052],8.55 ± 0.38
8,GTGTTCTTGTTATACACACACATATTTATATTTATA [CACACA_site6615],9.3 ± 0.37
9,ACATTATGCCATAAATGTACACATACATATACACAG [XGTACX_site1330],9.04 ± 0.37
10,TAACTAAGGAATAATACACACAGAAATATATATTTA [CACACA_site344],9.03 ± 0.47
11,GATGATGTTACTTAAGTGCATATAAATTATATTTTA [GTGCAC_site9940],8.52 ± 0.45
12,TAAAAAAATAAAAAAAAAAAATTATAAAATTATATA [GTGCAC_negctrl_site302],8.09 ± 0.57
13,TAAAGTTTTTTTTTAACACACACATAATAAAATAAA [CACACA_site8042],8.74 ± 0.32
14,AAATATATTATAAATTGTACGTTTATATATATTATT [XGTACX_site5110],8.69 ± 0.47
15,GACACATATAAATATTAACACACATAATGAATTATA [CACACA_site8881],8.99 ± 0.42
16,CGTTAGAGGGCTTTATCACACATGAAAAAAAAAAAA [CACACA_site5155],8.48 ± 0.56
17,TTATGTATTCATAACACATGCAAATAGGATCATATA [TGCATGCA_site731],8.73 ± 0.38
18,CACACGCACAGACACACACACACATATAAATATGTA [CACACA_site6300],9.89 ± 0.37
19,ATATGATTTCACAAGACACACACATACAAATTTATA [CACACA_site9296],9.3 ± 0.35

row,Sequence,gcPBM binding intensity (ln)
1,TACAACATATTCAAATGTACAAATATAGGAATGAAA [XGTACX_site2730],8.89 ± 0.47
2,AACATAAAATGGATATGTACATAAAAATATATACTC [XGTACX_site7775],9.13 ± 0.51
3,AGCGTATTATACTGACGTACATTTTATGTAACTCCA [XGTACX_site2715],8.79 ± 0.3
4,AAAAAAAAAAAAAAAACACACACAAATTTAATATAT [CACACA_site8492],9.12 ± 0.4
5,TACACCAAAAAAAAACGTACAAAATCCCACCCAGAC [XGTACX_site4622],9.81 ± 0.28
6,AAAATTAAAGTAAGGACACACATATATAATACATAT [CACACA_site823],9.2 ± 0.44
7,TATATATATAACAACACACACAGATCATAAAACTGC [CACACA_site2161],9.51 ± 0.23
8,AAAAAAAAAAAAAACACACACAAATTTAATATATAT [CACACA_site1695],9.29 ± 0.54
9,TATATTTATTTTAACACACACATATATATATTATAT [CACACA_site4729],9.12 ± 0.42
10,TCCCAAGGAGTAGGCACACATAAAATATTATACATA [CACACA_site717],8.86 ± 0.64
11,AAAAATATATATTCAGTGCATATAACAAAAATTATA [GTGCAC_site9794],8.71 ± 0.48
12,CATAATAATAGAAACACACACACATAGACATATATA [CACACA_site1308],9.93 ± 0.2
13,ATTAAATAAAAAAACACACACATATATACATATATA [CACACA_site3445],9.29 ± 0.23
14,CATATATAACCTATAGCACACATATATAATATATAT [CACACA_site8544],9.07 ± 0.36
15,TAAAATATAGAAAATTTTATTAAATATAAAAAAATA [CACACA_negctrl_site1441],8.28 ± 0.47
16,GCATATCTATTTTCACGTACACAAACATGTATATAT [XGTACX_site3722],8.97 ± 0.4
17,ATATTACATATGTGCTGTACGCAATATATTATATCT [XGTACX_site1520],9.03 ± 0.38
18,AAGAACTTTAATAAGTGTACATTTATTGGAAACATG [XGTACX_site2995],8.6 ± 0.51
19,TTATATAAACACCAACGTACGTTCATTTAACATAAC [XGTACX_site5250],8.93 ± 0.52

row,Sequence,gcPBM binding intensity (ln)
1,TATATATATATATATTGTACATATGTGGTATAAATG [XGTACX_site6108],9.31 ± 0.2
2,TTTCTCTTCTAAACATGTACAAAAATACATACATAT [XGTACX_site1365],8.73 ± 0.56
3,AAAAATTAAAATATTATAGTTGAAACTTTTATAAAT [TGCATGCA_negctrl_site454],8.25 ± 0.47
4,TATATTTATTCCTGTTGTACTTTATATTATTTTTTT [XGTACX_site1415],8.9 ± 0.47
5,TCCCATTTATTATGGTGTACAATTAATTAAACATAA [XGTACX_site750],8.4 ± 0.35
6,ATATATATATATATATGTACATACATACATAGAACT [XGTACX_site2214],9.68 ± 0.42
7,TATAATATTAATGACTGTACTCATACGTATATTTAT [XGTACX_site5493],8.98 ± 0.37
8,AATTTTGTTTAGCACACACACATACATACATACATA [CACACA_site5707],9.69 ± 0.28
9,TTTAATTTATATTTTGTGCACATCTTATTATATATA [GTGCAC_site9630],9.04 ± 0.49
10,CCCATTTTGACAAAAAGTACAAGTTCAGGTTTTATA [XGTACX_site1532],8.51 ± 0.42
11,TATATTATTTTATATTGTACATACCAAATATTATAT [XGTACX_site1693],8.68 ± 0.41
12,CATGTGATAATGATTAGTACATAAACAAAAATATAT [XGTACX_site5866],8.93 ± 0.53
13,AGAAAAATAAACAAATGTACAAATTATTACTATATA [XGTACX_site1087],8.81 ± 0.45
14,ACATATTAATTATTATGACATACATATCAGTTATTA [TGCATGCA_negctrl_site126],8.7 ± 0.4
15,TATTCCTATAAAAAAACACACACATATAAATATATA [CACACA_site8727],9.12 ± 0.3
16,AAATATATTTCACGCACACACACCCCAAATAAATTT [CACACA_site3820],9.81 ± 0.11
17,ATATTTCAAAATGAAAGTACATATAAAAATTATACA [XGTACX_site3787],8.6 ± 0.46
18,AAATAGATAAGTAGGACACACATATATATATATTAA [CACACA_site1862],9.13 ± 0.49
